Measured values as given in the supplement of paper PMC11417369.
The list shows a part of the results.

test system: PfHDP1 homeodomain (GST-tagged); experiment: gcPBM binding intensity (ln(normalized median fluorescence intensity)); higher = stronger DNA binding
Summary of the method: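 In this array assay, P. falciparum DNA-binding domains with a GST tag, expressed in E. coli, were applied for 1 h to primer-extended double-stranded 36-bp intergenic genomic probes and negative controls on an Agilent 4 × 180k array. Bound protein was visualised with Alexa488 anti-GST antibody at 488 nm. Binding intensity is the highest Masliner-normalised natural-log median intensity across replicate spots of either probe orientation.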

| Sequence | gcPBM binding intensity (ln) |
| --- | --- |
| TATAAACCTACATACACACATACAATAAGTAAAATG [CACACA_site1921] | 6.77 |
| TACTATGCCCCATATAAACACACAAATAAAAAGAAT [CACACA_site8857] | 7.43 |
| ATGTATCATAAGAACTGTGTGGTTACAGACACGAAC [GTGCAC_negctrl_site416] | 6.56 |
| TTTCCTTTTTTAATATGTACACATATTATTATATCT [XGTACX_site3079] | 6.83 |
| ATATATTCTTATTGCTGTACACATATTTTCTAAAAA [XGTACX_site4851] | 8.2 |
| AACGCAGTTTAATATACACACCAAAAAAAAAAAAAG [CACACA_site5643] | 6.42 |
| ACATTCTATACATACACACCCACACCCAAAAAAAAA [CACACA_site863] | 7.63 |
| TATATATCAATATACACACACACATATTTATTTATA [CACACA_site6858] | 6.97 |
| TAACCACAAAAATAAAATCAAAAAAAAAAAAAAAAA [CACACA_negctrl_site1727] | 6.21 |
| AAAAATATAATATAATGTACACATAAACAAAAAAAA [XGTACX_site3658] | 6.84 |
| TTTCTTAAATATATGCGTACTCAAAATTGTTCTACA [XGTACX_site7995] | 6.19 |
| TAAAATAAAACAAACACACACACACCGACACAAAAA [CACACA_site5993] | 6.88 |
| ATATATATATATTTCGCACACATAATCTTATTAAAT [CACACA_site2579] | 8.86 |
| AACAGACATACATACACACATACATACAGACATACA [CACACA_site1942] | 6.99 |
| AAAATTTCATAAAGACGTACTATAAAAATAAAATTA [XGTACX_site4182] | 6.45 |
| GCTATAATAAAATTTAAACACACGTAATATAATATA [CACACA_site2592] | 6.65 |
| GAAAAAAAAAAAAATACACACAAATTGGTATATAAC [CACACA_site6315] | 6.25 |
| TATAAAAAATATCCTTTTTTTATACATCAATATATA [TGCATGCA_negctrl_site291] | 5.81 |
| CACTAATAGTGGATTACACACATATAGATGTATATA [CACACA_site7234] | 6.29 |
| AAAAATTCTTGGCGCACACACTTTAAAAGTTAAAAA [CACACA_site6430] | 6.98 |
| AATTGTATAAATGGAATAATGACTATGATTATACAT [GTGCAC_negctrl_site188] | 6.67 |
| GTATATTTCTTTAAATGTACACATTTTTTTAAAGAG [XGTACX_site1225] | 6.32 |
| ATGTAGATATATATCTGTACGTATATGTAAATATTA [XGTACX_site1516] | 6.69 |

| Sequence | gcPBM binding intensity (ln) |
| --- | --- |
| AATTCTTTTTATATATTAAATATTATTAATAAGTCA [CACACA_negctrl_site1488] | 6.31 |
| ACACATTATAACAAGGTGCAATTTTTATACACATGT [GTGCAC_site9866] | 9.12 |
| ACAAAGACAATTTTGTTATATATAAAAAAAAAAAAT [CACACA_negctrl_site253] | 6.54 |
| CAAATATCTATTTAGTGTACTAATATATTCAATAAT [XGTACX_site2345] | 6.31 |
| TATATAAAACCTTATTGTACTATTAGACTATGCTTA [XGTACX_site6026] | 6.07 |
| ATAGCATATATTTTTTGTACATATGTTATATATATA [XGTACX_site2184] | 7.34 |
| TACAAATATATATGCACACACATATCTGTATATGTG [CACACA_site5663] | 9.84 |
| ATTAATTTTCCATTCACACATATATATATATATATA [CACACA_site6065] | 9.42 |
| AAGGTCATTTTATATTGTACATGAAATTGTTATGTA [XGTACX_site187] | 6.15 |
| ATATACAGATAAATGTGTACTTAAATCTATTATATT [XGTACX_site2632] | 6.03 |
| ATATATTTTGTATGTAGTACAATTTTATAATCATAT [XGTACX_site8373] | 6.23 |
| TCAATTTGGAACGGTATGCACTAATTTTATATTTTT | 8.23 |
| TATTACAAATATGGCACACATATATATATATATATT [CACACA_site3268] | 6.67 |
| AATAATGAATACACATGTACAAAAATTTTTCTTACT [XGTACX_site1962] | 6.82 |
| TTTTAAAATATCAACACACTCATTATTTTCTATATT [CACACA_site4740] | 6.25 |
| AAAATAAAAACAAAATCACACATTCCAGTTTTTTTT [CACACA_site5356] | 6.12 |
| TCATTCTATCTGTTCACACATACACAAAAAAAAAAA [CACACA_site5141] | 6.67 |
| TATATACATGTGAGAGTGCATATAGACATAAAAAAT | 7.99 |
| AAAATAAGCGTGAAACGTACATATTACATTATTATA [XGTACX_site8914] | 6.3 |
| TATTAAAAGAAAATAACACACACAAAAAAAAAAAAA [CACACA_site8661] | 6.21 |
| ATAATATATATATAGTGTACATTTGAATATATTTGA [XGTACX_site583] | 6.68 |
| AAAAAAAACAGACACACACACAAATATATAAAAATA [CACACA_site1172] | 6.81 |
| TTTTTGAAATAATGAAACAGCAAAAAAACAAAAATA [CACACA_negctrl_site221] | 7.14 |

| Sequence | gcPBM binding intensity (ln) |
| --- | --- |
| ATATATCAACTCATATTATTTTCTTTTATTATTTAT [CACACA_negctrl_site276] | 6.47 |
| GTATACTTAACATTCACACATATATATATATATAAA [CACACA_site4596] | 6.79 |
| AATTATTTACCTTCTTTGAAAGAACAAATGATACAA [CACACA_negctrl_site1315] | 6.35 |
| ATATATATATATATATGTACTTATAATTCTTCAATT [XGTACX_site5627] | 9.44 |
| TTTATATTTCTCTTTAGTACATATTATATTCTTTTA [XGTACX_site1618] | 6.48 |
| AATGAAAATAAATTAACACACAATTTTAATATTGTT [CACACA_site1306] | 6 |
| ATTTATCTATAATATACACACATATAACAGACATAT [CACACA_site6469] | 6.56 |
| CTTTCGGTTGGAGAGGTGCGCTTCTCCTTTATAATA | 6.43 |
| TGATAGCTAGCTATATGTACATATATATATATATAT [XGTACX_site393] | 9.44 |
| AAACATCATAAATATACACACATATATATATATATA [CACACA_site620] | 9.37 |
| TACACAAAATTTAAATGTACATTAAATATATGATGT [XGTACX_site2140] | 6.37 |
| CGAAACCATATGTACACACACATATATAAATATGTA [CACACA_site7082] | 6.68 |
| AAAACGTATCACAAAAGTACAGATAGTTATAATATA [XGTACX_site185] | 6.33 |
| TCTTAAATATACAGTTGTACTAAACAAAAAAAAAAA [XGTACX_site2639] | 6.26 |
| AAAATATACACACATATGTATATAATATTATATGTA [GTGCAC_negctrl_site496] | 6.86 |
| TATAAAAAATGATAAAGTACTTTATACACACAAATA [XGTACX_site8486] | 7.02 |
| CTAAAACAATAAATCACACATACATAGGATAATATA [CACACA_site4247] | 6.48 |
| ATTTATAATCTGTATAGTACACATATATACATGGTT [XGTACX_site2714] | 6.46 |
| ACCTCTTTGAAATATACACACTAAACATATCAACTT [CACACA_site5372] | 7.32 |
| TACATAGAGTTTGTTTGTACTCATATGCGTAAATTC [XGTACX_site4810] | 6.49 |
| AGAAAAAAAATATACACACATACGATCATACATATG [CACACA_site2171] | 6.63 |
| TCTGTAGTTTTTTACAGTACTTTTAGGTAATACATA [XGTACX_site7417] | 6.08 |
| AAAACACCCAAACACACACACACATATATATATATA [CACACA_site9119] | 9.18 |

| Sequence | gcPBM binding intensity (ln) |
| --- | --- |
| TTCTTGTATTTTCATAGTACATATAATGTCGTGTTA [XGTACX_site7714] | 6.6 |
| AATAAATTATTTATTGCATGTAATATGAATATTTTT [TGCATGCA_site798] | 6.74 |
| TAATGTATGAAATAAACACACAAGTAAGTACATAAA [CACACA_site2451] | 6.95 |
| ATATATTTTATTCCTATATATATATATATATATATA [GTGCAC_negctrl_site556] | 9.63 |
| CATTATGTCATAAATGCACACATATACATTGTTTTG [CACACA_site8118] | 10.4 |
| ATTATTTTTCTATGTGTGCACGTGTGGAATGTGTCT [GTGCAC_site9507] | 9.17 |
| TTCTGAACAAAATTATATATTTATTTTTATTTTCAT [CACACA_negctrl_site422] | 6.35 |
| TATATTACTTAAAATACACACCATGGAAAAGTTTTA [CACACA_site5443] | 6.51 |
| TTTCTTTTTTTTTTTTTTTCTGGCTTTTTCTCTTTT [TGCATGCA_negctrl_site599] | 5.85 |
| TTTTTATTTTTTTTATGTACACAAATGATATACATA [XGTACX_site5910] | 6.77 |
| AGGATACACGGACACACACACATATAGATTTATATA [CACACA_site6552] | 6.89 |
| AAAATGAATATAATGACGCACACTTAAAATTGTTAA [CACACA_site2509] | 6.46 |
| TGTGTTAAATGTAATAGTGAATAAATAATTTTAACA [TGCATGCA_negctrl_site161] | 6.36 |
| TTTTTTAGAAAAAGTTGTACTTTTTTTTTTTTTTTT [XGTACX_site535] | 5.92 |
| TAAAAATGTAGACACACACACATATATATATTTAAT [CACACA_site1528] | 6.89 |
| ATATATATAATATAGGTGCACTACTTATTTAAAAAA | 9.91 |
| TTAATAACAAAATAAACACACATATATAAATCCACA [CACACA_site1590] | 6.81 |
| AAATAATTAGCTATTTGTACATATATACATATTTAT [XGTACX_site4652] | 6.37 |
| ATATATTAGGGCAAATTTTCTGACATTACATCAGTC [CACACA_negctrl_site1166] | 6.48 |
| ATATTTATATTTGTATGTACTTAAGTTTGTATGTAT [XGTACX_site3608] | 6.67 |
